Reference: PubChem BioAssay AID1347165 (National Center for Advancing Translational Sciences (NCATS), 2019)
The campaign covered roughly 220,000 compounds. About 5,700 (2.6%) were called active. Inconclusive results, whose numbers are uncertain, are shown with a selection of clear calls. The call rests on the fitted dose curve; in most records, active means well fitted inhibition curve with a large enough effect; inconclusive means small, poorly fitted or top-dose-only effect; inactive means no such curve, though single readings can be large or run the other way. Potencies beside an inconclusive call are fits to weak or partial responses and may not hold up.

Biological target: Lysine-specific demethylase 5B (Homo sapiens) (UniProt Q9UGL1)
Chain of UniProt Q9UGL1 (Q9UGL1 whole entry, looked up): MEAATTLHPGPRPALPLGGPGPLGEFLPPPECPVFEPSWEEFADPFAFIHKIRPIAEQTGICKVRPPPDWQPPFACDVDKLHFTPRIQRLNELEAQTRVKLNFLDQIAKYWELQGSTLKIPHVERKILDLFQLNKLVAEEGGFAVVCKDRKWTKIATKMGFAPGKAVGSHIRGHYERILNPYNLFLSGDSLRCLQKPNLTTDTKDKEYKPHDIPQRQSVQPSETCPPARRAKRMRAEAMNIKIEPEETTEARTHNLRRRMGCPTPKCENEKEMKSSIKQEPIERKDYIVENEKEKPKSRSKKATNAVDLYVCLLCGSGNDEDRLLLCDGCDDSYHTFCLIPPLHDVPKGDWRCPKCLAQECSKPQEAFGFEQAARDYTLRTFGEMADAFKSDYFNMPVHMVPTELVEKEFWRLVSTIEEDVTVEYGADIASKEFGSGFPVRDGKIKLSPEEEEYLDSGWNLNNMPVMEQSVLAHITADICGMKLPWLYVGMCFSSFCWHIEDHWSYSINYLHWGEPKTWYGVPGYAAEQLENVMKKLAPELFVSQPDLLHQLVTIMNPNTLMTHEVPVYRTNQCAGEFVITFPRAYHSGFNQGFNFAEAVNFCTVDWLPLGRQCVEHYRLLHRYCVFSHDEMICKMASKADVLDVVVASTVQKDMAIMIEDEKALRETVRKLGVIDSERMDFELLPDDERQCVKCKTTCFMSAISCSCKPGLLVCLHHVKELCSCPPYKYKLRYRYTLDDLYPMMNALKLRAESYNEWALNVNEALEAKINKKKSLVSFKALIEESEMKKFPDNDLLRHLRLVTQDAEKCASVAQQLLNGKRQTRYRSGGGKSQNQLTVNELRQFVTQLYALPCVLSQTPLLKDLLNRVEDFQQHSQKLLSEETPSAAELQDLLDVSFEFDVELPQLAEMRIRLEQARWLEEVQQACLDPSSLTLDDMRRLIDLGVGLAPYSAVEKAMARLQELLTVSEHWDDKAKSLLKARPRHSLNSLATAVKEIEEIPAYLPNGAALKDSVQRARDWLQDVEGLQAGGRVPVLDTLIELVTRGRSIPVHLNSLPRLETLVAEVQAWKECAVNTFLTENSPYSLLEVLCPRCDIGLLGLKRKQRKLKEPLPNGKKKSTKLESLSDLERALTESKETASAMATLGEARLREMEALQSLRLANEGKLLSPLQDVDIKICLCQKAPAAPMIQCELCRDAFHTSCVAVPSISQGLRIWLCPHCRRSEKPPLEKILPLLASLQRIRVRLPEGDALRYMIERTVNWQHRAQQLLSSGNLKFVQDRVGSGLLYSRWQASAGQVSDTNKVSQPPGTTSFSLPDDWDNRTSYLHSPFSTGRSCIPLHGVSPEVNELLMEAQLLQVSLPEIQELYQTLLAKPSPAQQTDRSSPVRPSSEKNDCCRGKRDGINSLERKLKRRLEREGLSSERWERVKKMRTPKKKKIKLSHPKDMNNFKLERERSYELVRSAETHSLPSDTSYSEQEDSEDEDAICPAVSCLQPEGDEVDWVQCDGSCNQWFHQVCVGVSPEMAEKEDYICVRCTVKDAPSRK
Experiment: Primary screen for KDM5B Histone Demethylases FDH-coupled qHTS; further: nearly all actives have a fitted effect of over 70% in size; on activity change, negative = inhibition: 0% is about no effect
Conditions: FDH-coupled NADH fluorescence (FDH is formaldehyde dehydrogenase); activity change, negative = inhibition: at 57.7 µM (top of the series) unless noted
Method in brief: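 Measured: NADH fluorescence change, 30 min, RT. System: KDM5BΔAP 200 nM final, H3K4me3 peptide, α-KG, Fe(II), ascorbate, NAD⁺ plus FDH, pH 7.5 HEPES. Compounds: titrated, 10 min pre-incubation with enzyme.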
Potency means the concentration at half of the fitted maximal effect; tags describe the fitted curve by direction and shape.

Row | SMILES | Potency | activity change, negative = inhibition
1 | COc1ccc(-c2cn3c(n2)sc2cc(C(=O)Nc4ccccc4F)ccc23)cc1 | inconclusive: 28.2 µM [inhibitor, partial curve, poor fit] | 
2 | Cc1ccc(Cn2c(SCc3ccc(C(=O)NCCc4ccccc4)cc3)nc3ccncc32)cc1 | inconclusive: 2 µM [inhibitor, partial curve, poor fit] | 
3 | CCN(Cc1cccc(F)c1)C(=O)Cn1cnc2c1c(=O)n(C)c(=O)n2C |  | inactive: -8.5%
4 | Cc1nc(-c2ccc(C)c(N3CCN(C(=O)Nc4ccc(Br)cc4)CC3)c2)no1 | inconclusive: 1.58 µM [inhibitor, full curve, poor fit] | 
5 | CCOC(=O)CCCn1nc2n(c1=O)CCN(Cc1cccc(Cl)c1)C2=O |  | inactive: 4.44%
6 | CN(Cc1ccccc1)C(=O)c1ccc(-c2ccsc2)cc1 |  | inactive: 18.9%
7 | c1coc(-c2nc3ccccn3c2Nc2ccc3c(c2)OCCO3)c1 | inconclusive: 31.6 µM [inhibitor, partial curve, poor fit] | 
8 | Cc1cc(C(=O)NC(C)c2cccc(Cl)c2)c2cnn(C(C)C)c2n1 (stereo not drawn) | inconclusive: 20 µM [inhibitor, partial curve, poor fit] | 
9 | CCCCn1c(=O)[nH]c2c(oc3ccccc32)c1=O | inconclusive: 22.4 µM [inhibitor, partial curve, poor fit] | 
10 | Cc1ccccc1OCCN(C)Cc1cc(=O)oc2cc(O)ccc12 | inconclusive: 31.6 µM [inhibitor, partial curve, poor fit] | 
11 | COc1ccc2nc3n(c2c1)[C@@H](CNCc1ccc(C#N)cc1)COC3 | active: 28.2 µM | 
12 | CCc1ccc2c(CN(C)CCOc3ccc(F)cc3)cc(=O)oc2c1 | inconclusive: 28.2 µM [inhibitor, partial curve, poor fit] | 
13 | CCc1ccc(N(CC)C(=O)Cn2nc(Cc3cccnc3)c3ccccc3c2=O)cc1 |  | inconclusive: -32.6% [inhibitor]
14 | CC1(NC(=O)Nc2cccc3ccccc23)CCS(=O)(=O)C1 (stereo not drawn) | inconclusive: 28.2 µM [inhibitor, partial curve, poor fit] | 
15 | CC(C)(C)SCC(=O)Nc1ccc2c(c1)CCC2 |  | inactive: 17.1%
16 | O=C(OCCOc1ccccc1Cl)c1ccccc1Sc1ccc(C(F)(F)F)cc1[N+](=O)[O-] |  | inactive: 1.42%
17 | COc1cc(OC)cc(C(=O)NCC(=O)NCCN2C(=O)S/C(=C\c3ccc4c(c3)OCO4)C2=O)c1 | inconclusive: 35.5 µM [inhibitor, single point] | 
18 | O=S(=O)(Nc1ccc(-c2ccc(N3CCCCCC3)nn2)cc1)c1ccc(Cl)s1 |  | inactive: 1.72%
19 | COc1cc(CN2CCN(S(=O)(=O)c3ccc(NC(C)=O)cc3)CC2)cc(OC)c1OC | inconclusive: 2.51 µM [inhibitor, full curve, poor fit] | 
20 | O=S(=O)(c1ccc2nc(NCCN3CCN(c4ccccc4F)CC3)ccc2c1)N1CCCC1 | inconclusive: 39.8 µM [inhibitor, single point] | 
21 | CCCc1noc(-c2ccn3c(CNC(=O)Cc4ccc(Cl)cc4)nnc3c2)n1 | inconclusive: 0.708 µM [inhibitor, full curve, poor fit] | 

Row | SMILES | Potency | activity change, negative = inhibition
22 | O=C(CCC1CCN(c2cc(NC3CC3)ncn2)CC1)NCc1cc(F)cc(F)c1 |  | inactive: 8.13%
23 | COc1ccc(CN2CC[C@H](c3nnc(-c4ccco4)o3)C2)cc1 | inconclusive: 31.6 µM [inhibitor, partial curve, poor fit] | 
24 | COCc1noc(CN2CCN(C)C3(CCC(=O)N(CC4CC4)CC3)C2)n1 (stereo not drawn) | inconclusive: 22.4 µM [inhibitor, partial curve] | 
25 | O=C1COCC2(CN1Cc1cccc(OC(F)(F)F)c1)CN(C(=O)C1CCOCC1)C2 |  | inactive: 7.33%
26 | Cc1ccc(CSc2nnc(C3CCN(C(=O)OC(C)(C)C)CC3)o2)cc1 | inconclusive: 25.1 µM [inhibitor, partial curve, poor fit] | 
27 | COc1ccc(CNC(=O)Cn2ccc3cc(S(=O)(=O)N4CCCCC4)ccc32)cc1OC | inconclusive: 25.1 µM [inhibitor, partial curve, poor fit] | 
28 | COc1ccc(OC)c(-c2cc3ccc(O)cc3oc2=O)c1 | inconclusive: 28.2 µM [inhibitor, partial curve, poor fit] | 
29 | Cc1ccc(-n2c(=O)c3c4c(sc3n(Cc3cc(=O)n5ccccc5n3)c2=O)CCC4)cc1C | inconclusive: 28.2 µM [inhibitor, single point] | 
30 | COC(=O)C1=C(C)N=C2SC=C(CC(=O)N3CCCCC3C)N2C1c1ccc(OC)cc1 (stereo not drawn) | inconclusive: 22.4 µM [inhibitor, single point] | 
31 | COC(=O)CNC(=O)c1nc(-c2ccc(Cl)nc2)c2cnccn12 | active: 35.5 µM | 
32 | CCOC(=O)c1ccc(NC(=O)CSc2nc3cc4ccccc4cc3[nH]2)cc1 |  | inconclusive: -71.5% [inhibitor] [at 11.5 µM]
33 | O=C(Nc1ccc(Br)cc1F)c1cc(S(=O)(=O)NC2CCCCC2)ccc1F | inconclusive: 50.1 µM [inhibitor, single point] | 
34 | O=C1CCN(Cc2c[nH]c3ccccc23)CCCC(C(=O)NCc2ccccc2)CCN1 (stereo not drawn) | inconclusive: 39.8 µM [inhibitor, partial curve, poor fit] | 
35 | Cc1nc2nc(NC(=O)c3ccc(C(C)(C)C)cc3)[nH]n2c(=O)c1Cc1ccccc1 | inconclusive: 31.6 µM [inhibitor, partial curve, poor fit] | 
36 | O=C(CCOc1ccccc1)N(Cc1cccnc1)c1nc2ccc(Cl)cc2s1 | inconclusive: 20 µM [inhibitor, partial curve, poor fit] | 
37 | COc1ccccc1CNC1(Cc2cc(-c3ccccn3)on2)COC1 | inconclusive: 39.8 µM [inhibitor, partial curve] | 
38 | Cc1onc(-c2ccccc2Cl)c1-c1nc(-c2ccc(Br)cc2)no1 |  | inactive: -14.7%
39 | N#Cc1cccc(C(=O)NCc2nnc3ccc(-c4ccc(F)cc4)nn23)c1 | active: 28.2 µM | 
40 | Fc1ccc(-c2nnc(N3CCOCC3)c3ccccc23)cc1F |  | inactive: 0%
41 | CCOC(=O)c1cnc(Nc2ccc(C)c(F)c2)c2ccccc12 |  | inactive: -17.3%
42 | CC1=C(C(=O)Nc2ccc(C)cc2C)C(c2cccs2)n2nc(SCc3cccc(C)c3)nc2N1 (stereo not drawn) | inconclusive: 1.78 µM [inhibitor, full curve, poor fit] | 

Row | SMILES | Potency | activity change, negative = inhibition
43 | CNC(=O)CSc1cn(CC(=O)N2CCCCCC2)c2ccccc12 |  | inconclusive: -31.1% [inhibitor]
44 | Cc1nc2c(C)cccn2c1/C(O)=C1\C(=O)C(=O)N(CCN(C)C)C1c1ccc(Br)cc1 (stereo not drawn) | inconclusive: 20 µM [inhibitor, single point] | 
45 | CCC(C(=O)Nc1cccc(-c2nc3cccnc3s2)c1C)c1ccccc1 (stereo not drawn) |  | inactive: -12.9%
46 | Cc1ccc(C(=O)NNC(=S)Nc2ccccc2)cc1 |  | inactive: -1.04%
47 | COc1ccc(-n2cc(C(=O)NCCc3cc(OC)ccc3OC)c3ccccc3c2=O)cc1 | inconclusive: 31.6 µM [inhibitor, single point] | 
48 | COc1ccccc1C(=O)NC1CCN(c2cc(-c3ccc(Cl)cc3)[nH]n2)CC1 | inconclusive: 28.2 µM [inhibitor, partial curve, poor fit] | 
49 | O=C(CCNc1c(-c2ccc(F)cc2)nc2cnccn12)N1CCCCC1 | active: 22.4 µM | 
50 | CCN1c2cc(C(=O)NCCC3=CCCCC3)ccc2C(=O)N2CCCCCC21 (stereo not drawn) | inconclusive: 20 µM [inhibitor, partial curve, poor fit] | 
51 | Cc1ccc(-c2ccc(=O)n(Cc3c(F)cccc3Cl)n2)cc1 | inconclusive: 25.1 µM [inhibitor, single point] | 
52 | COc1ccc(-n2c(=O)c3c(c4cc(OC)ccc4n3C)n(Cc3cccc(C)c3)c2=O)cc1 | inconclusive: 15.8 µM [inhibitor, partial curve, poor fit] | 
53 | COc1ccc(OC)c(-c2nc3ccc(-c4ccc(OC)c(OC)c4OC)cc3o2)c1 |  | inactive: -1490%
54 | COc1ccc2[nH]c3c(=O)n(CCCN4CCOCC4)cnc3c2c1 | inconclusive: 28.2 µM [inhibitor, partial curve, poor fit] | 
55 | COc1ccc2c(c1)c(=O)c(S(=O)(=O)c1ccccc1)cn2CC(=O)Nc1ccc(C)c(Cl)c1 | inconclusive: 28.2 µM [inhibitor, partial curve, poor fit] | 
56 | OCC1CCCCN1CC(O)COC(c1ccc(F)cc1)c1ccc(F)cc1 (stereo not drawn) | inconclusive: 11.2 µM [inhibitor, partial curve, poor fit] | 
57 | COc1cccc(CNC(=O)Cn2nc(-c3ccc(Cl)cc3)ccc2=O)c1 | inconclusive: 1.26 µM [inhibitor, partial curve, poor fit] | 
58 | CCCCn1c(=O)[nH]c(=O)c2c1nc(CCC(=O)Nc1ccc(C)cc1)n2CC(C)C |  | inactive: 4.74%
59 | Cc1cccc2c1N(Cc1ccccc1OCCC(C)C)C(=O)C2=O | inconclusive: 10 µM [inhibitor, partial curve, poor fit] | 
60 | CC(=O)c1ccc(NC(=O)c2cc(C)nc3c2c(C)nn3-c2ccc(C)cc2)cc1 | inconclusive: 25.1 µM [inhibitor, partial curve, poor fit] | 
61 | COc1ccc(C(=O)N[C@@H]2CN(C)C[C@H]2CN(C)C)c(C)c1 | inconclusive: 15.8 µM [inhibitor, partial curve] | 
62 | CCc1noc(-c2cn(C3CCN(C(=O)C(C)Oc4ccccc4)CC3)nn2)n1 (stereo not drawn) | inconclusive: 31.6 µM [inhibitor, partial curve, poor fit] | 
63 | CC(C)NC(=O)N1CCC(Oc2ccccc2-c2nc(-c3ccccc3)no2)C1 (stereo not drawn) | inconclusive: 25.1 µM [inhibitor, partial curve, poor fit] | 
